Assay results from patent US20260103501A1, “MRNA Therapies Including SIRP-ALPHA” (NUTCRACKER THERAPEUTICS, INC., priority 2022, published 2026).

Target: T1, mouse CD47 (Mus musculus, UniProt Q61735)
T1 construct: Analogous experiments were conducted in EG7 cells expressing mouse CD47; endogenous in cells; host or cells: EG7 cells
T1 sequence (Q61735 19-303): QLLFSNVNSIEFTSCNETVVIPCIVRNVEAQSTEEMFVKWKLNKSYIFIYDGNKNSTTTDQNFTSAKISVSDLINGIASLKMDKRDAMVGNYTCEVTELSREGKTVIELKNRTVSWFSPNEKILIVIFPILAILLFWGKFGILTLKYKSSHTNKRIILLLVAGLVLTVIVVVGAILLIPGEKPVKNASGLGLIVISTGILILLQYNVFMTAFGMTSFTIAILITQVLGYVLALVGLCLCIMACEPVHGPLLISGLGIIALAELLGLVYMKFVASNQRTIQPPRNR
Test: Cell-based ligand-binding assay in EG7 cells expressing mouse CD47
Settings: FIG. 11B
Description: About 200,000 Raji cells were stained with indicated concentration of SIRPα-FC protein in cell staining buffer (Biolegend CAT #420201) for 20 min at RT. After washing cell staining buffer, the cells were incubated with PE labeled anti-human-IgG-FC for 20 min at RT, and then the cells were washed and analyzed by flow cytometry.

cross-reactivity with mouse CD47: cross-reacts with mouse
B1: fusion protein 1054: SEQ ID NO: 7; a high affinity SIRPα construct, bivalent (protein)
chain: EEELQIIQPDKSVLVAAGETATLRCTITSLFPVGPIQWFRGAGPGRVLIYNQRQGPFPRVTTVSDTTKRNNMDFSIRIGNITPADAGTYYCIKFRKGSPDDVEFKSGAGTELSVRAKGG[human IgG1 Fc not printed]
